Data reported in the supplement of paper PMC3334620.
Whole data set: some 33,000 sequences, median “E-score (-0.5 to 0.5)” near -0.054, cut for the highest 2% near 0.39. The list shows a part of the results.

Each sequence was assayed against Ylr278c (UniProt Q05854) (assay: PBM E-score (8-mer binding enrichment) (E-score (-0.5 to 0.5)); higher = stronger / more preferred TF binding; most listed sequences are background and not binding sites). Details: protein concentration: 200 nM; construct: GST-DNA-binding domain.
Method in brief: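 Yeast transcription factors, full-length or as DNA-binding domains, were expressed with a GST tag using PURExpress in vitro transcription/translation. At about 100-200 nM they were applied to universal all-10-mer Agilent arrays, double-stranded by primer extension on fresh or once-stripped slides. Fluorescent anti-GST detected bound protein, and masliner normalised the scans. E-scores for ungapped eight-base words, pooled with reverse complements, came from the Universal PBM Analysis Suite.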

Sequence	PBM E-score
ACATCAGA	-0.223
AACTCGGG	0.182
AGATGTCG	-0.0161
ACCCGCGA	-0.00707
CATGGTCG	-0.00982
GGCAACCC	-0.0105
AGGCGGCA	0.00545
CCTAAGAC	-0.228
CAACACTA	-0.00728
AACACATT	-0.056
AGTTGTCG	0.0744
GAAATGGA	0.0716
ACTATGCT	-0.144
ACAAGGCG	0.0356
TCGCGCAA	0.0618
TTAAATAA	0.118
CGTGGAGC	0.0622
CAGGAATG	-0.264
ATCCGTAA	0.155
GAGCAGAA	-0.0303
CGCGCCTA	0.16
GGATAGGA	0.0107
ACTTGGAT	-0.121
TGAGTAAA	-0.173
AAAAAAAT	0.0804
TGGTAACA	-0.169

Sequence	PBM E-score
GAAAACGA	-0.00859
CTCAGAGC	-0.346
AAATTACC	0.0177
AGAGTAGC	-0.209
GAGAAAAC	0.0753
AATATAGT	-0.0246
ATATGAAA	-0.0164
ATAATTGG	-0.0418
TATCAGAA	0.0195
CTGCAGTC	-0.196
TCCGACCA	0.331
ATAACCGG	0.306
AGACTATG	-0.158
ATGAGTTC	0.019
GTATTATA	0.102
ACGGGCAG	-0.0679
CCACAGTA	-0.247
ATTTGTTA	0.0214
GAGATTAA	-0.0135
AGAGGCTC	-0.16
CATTAATG	-0.0565
GGGACTAC	-0.0279
CTTGGTAC	-0.148
AATATGCC	-0.0168
CTTTTCAC	-0.102
CTGATTAA	0.00608

Sequence	PBM E-score
CGAGCGGA	0.381
CAGTAATA	-0.0469
CAATGCAC	-0.105
CATAGATG	-0.18
GGAGAGCA	-0.00586
GAGGGCGC	0.0234
GACGCAGA	0.0423
GAGTTAAA	-0.051
GGAAGGAC	0.0596
CCTGGGTC	-0.0105
AGTTGATG	-0.201
AAGTACAG	-0.365
ATCTGAAG	-0.189
AATCGTTC	-0.109
AAATTGCT	-0.0913
CGCAGCAA	-0.169
ACCCACAC	0.00637
GGGCGCTA	-0.0584
ATCCCAAG	0.0131
CGTCCAAG	0.00044
ATCTTATC	0.00826
TGTCTAAA	-0.172
GTAGTCCA	-0.0814
CTCCTCAC	-0.185
GCGCGGCA	0.16
TACCGTAA	0.0882

Sequence	PBM E-score
GCTATCGA	-0.00696
AAAGGGTC	-0.0323
AGGGCACG	-0.0859
AGTCCAAT	-0.0114
TCAACACA	-0.151
CTCAATAA	-0.129
CCTCGTGC	-0.0283
CCTCGGAA	0.39
CAAGCGAC	-0.00016
ACTCATAG	-0.275
GCTTAGCA	-0.0298
AACGATAG	-0.0537
ATACGTTA	-0.255
CTAGCCCC	0.0452
ATCAGAGC	-0.0306
GCACTAGA	-0.16
ACCCTCTA	-0.192
ACATGGAT	-0.11
AACTGCGT	-0.252
CATCTTTA	-0.0964
AAAATTAT	0.214
ATAGTCCC	-0.153
AACGACAC	-0.0599
ATCCGGAA	0.432
GATGAACA	-0.0375
CTTGTTTC	-0.0304

Sequence	PBM E-score
ATCTTCAT	0.0807
CCTCTCAC	-0.157
CCCAAGTC	-0.101
CACAGAAA	-0.0328
GACTATGA	-0.11
CGGCATAA	0.296
CTCAGGGC	-0.0882
CTGCCTCC	0.0802
TTAACCAA	-0.136
GAAACGCA	0.0174
GTAGGAAC	-0.191
GAATACCA	0.00717
AAAGGGGC	-0.163
AAGCCGGG	0.229
TCCCTACA	-0.00917
CGTTGTGA	-0.0637
CTTCCGCA	0.198
ACATATCA	-0.0989
CTGGAAAG	-0.262
CGAGTGGC	-4e-05
CTATGGAA	-0.113
ACCTTGGC	-0.104
CAAACATG	-0.239
CTTGGTTC	0.0347
ACGTCGTC	-0.0751
CACAATAC	-0.0279

Sequence	PBM E-score
AGCCAAAA	-0.223
AGTTCGTA	0.0596
TGCGTCCA	-0.0912
CCTGCACA	-0.173
ATGCATAA	-0.242
CCCGGTAC	0.253
CTTGGTGC	-0.247
ATGCATCC	-0.024
GAATCCTA	0.0325
AAAGCCTA	-0.184
TCTCTTCA	-0.0515
CTCCCCAG	-0.157
ATGTGTTA	-0.168
TAGGTGAA	0.00725
CTAGGGCA	-0.219
AGTCTCGC	-0.176
AACGGCAA	-0.0988
GCGACCAA	0.00386
CGCGTAAA	-7e-05
CATTCATA	0.129
ACCCTAAG	-0.173
